Reference: the supplement of paper PMC11417369
The other results are listed elsewhere or left out.

The sequences below were run on PfHDP1 homeodomain (GST-tagged) (assay: gcPBM binding intensity (ln(normalized median fluorescence intensity)); higher = stronger DNA binding).
Outline: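 Binding intensity values are the highest Masliner-normalised natural-log median intensity among replicate spots of either probe orientation. The binding step lasted 1 h in 1× PBS with 1% milk, 0.2 mg/ml BSA, 0.5% salmon testes DNA and 0.03% Triton X-100, using GST-tagged P. falciparum DNA-binding domains expressed in E. coli on an Agilent 4 × 180k array of primer-extended double-stranded 36-bp intergenic genomic probes plus negative controls. Alexa488 anti-GST antibody and a 488 nm scan detected bound protein.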

Sequence	gcPBM binding intensity (ln)
AAATAAAAAAGTAGTACACACTTCACGATATTTTTT [CACACA_site6015]	6.19
CATATTTTTAAATACACACACATAAAAAAAAAAAAA [CACACA_site1095]	6.55
TTTTTTTTAAAAAACACACACCTAAACAAGATATTT [CACACA_site6541]	6.74
TTACGTTATATACATACACACCCACGCACAAAAAAA [CACACA_site6537]	7.63
TACAGATATTATTGCACACATATAAAATACCCCCAA [CACACA_site6014]	10.4
ATTAAATACTTCGATTGTACAATTTTTTTTTTTTTT [XGTACX_site832]	6.47
TAAGAATAATGACATAGTACAATTTAATAGATCTAA [XGTACX_site3670]	6.01
TTTTCAAAATAATATTATATCAAATGCTAAAAAGAA [TGCATGCA_negctrl_site588]	6.78
AAGTTTATTTGTTGCACACATATAAGTAGAGAAAAT [CACACA_site3027]	10.2
TTAATATAATAAAATCGTACAAATAAAATATAAAAT [XGTACX_site8730]	6.65
AAAAAAAAAAAAGATACACACAAAAATGGATATATA [CACACA_site7069]	6.15
AACCAATATGAGTATACACACATAAATATAAATATA [CACACA_site5968]	6.52
AAAAATGAGAAACACACACACATATATATATATATA [CACACA_site2228]	9.28
TCTTTAAATCGAGTGTTAAATAATATAATATAAAAA [CACACA_negctrl_site1507]	6.13
ATATATATATATCACCGTACTTATATAATAACATGA [XGTACX_site4398]	9.08
ATAATATTCGAGTGTGCACACAAACATACATATATA [CACACA_site3396]	11.1
ATACAGAAAAAAAACACACACACATAATATACATAC [CACACA_site1933]	6.91
ATTTTTATTAAAATATGTACGTATTTTACTCATACA [XGTACX_site5330]	6.55
ACAGATATATTTATTTGTACATATCACCAAAATGGA [XGTACX_site5644]	6.21
TAATTATTCTATTAAGTGCATATATTTTTAAAAAGA	9.39
TTTTTTTTTTATTTTTGTACATATATTTCAGTATTA [XGTACX_site8396]	6.38
ATAATATATATTAAACGTACATAAAATAATTATGGA [XGTACX_site1670]	6.43

Sequence	gcPBM binding intensity (ln)
GTATGTATATATGTATGTACTTATGTATCATTATTA [XGTACX_site2438]	6.12
TAATATTTATGTTAATGTACAAAAAAACAAAACAAA [XGTACX_site301]	6.64
ATAAAAATACAGTTAACACACATGTGTATTTATATG [CACACA_site7727]	7.21
GAAAACGTTTGAAGTTGTACATATGTATAAAAAGAA [XGTACX_site2304]	7.74
TGTTATTTAAATAATTCTTTTTAAAAGATGAATTAT [CACACA_negctrl_site1226]	6.46
ATGGTCTGTTAAAGATGTACTTTTTAAAAATAAACG [XGTACX_site2583]	6.4
CTATTTGGGGGAAGAGTGCATGACATGAATATAAAA	8.41
AAAAGGAAGATATATACACACATACAAATATATATA [CACACA_site5236]	6.81
ATAAATTTTTAAAAATATGAATTATGTAATTTGTGA [CACACA_negctrl_site1621]	6.31
TTTTTTTTTTTTTTCACACACTAATAATATTATCAT [CACACA_site4417]	6.56
CTATATTATAAATATACACACATATCTTAAGTATAA [CACACA_site3096]	6.48
TTGATGTATACAATGTAGATTATTTAATATTTCAAC [CACACA_negctrl_site73]	6.34
ATTAGTATTAGATGATGTACATTTATATTGAAATAT [XGTACX_site8537]	6.6
CTTTTTGAAATATTAACACACATTTTGTTAATTAAT [CACACA_site4046]	6.39
CACAGATAAATTAACACACACACACCCATATATATA [CACACA_site3960]	6.94
ATAATATAACACAAATGTACAAAAAATAAATAAATA [XGTACX_site385]	6.52
AACAAACACAGACACACACACACACCCAAATGATTA [CACACA_site2431]	6.98
TATATATATACTTAATGTACATATATATATATATAT [XGTACX_site3102]	9.26
CATACTCACCAACACACACACACACCCATATAGAAT [CACACA_site592]	7.36
ATGTAAAATTAATATTGTACTTTTCCATCATGATAC [XGTACX_site2669]	6.25
TATTATTTAATCAAATGTACATAGAAAATGTATGTA [XGTACX_site4433]	6.21
TATATTAAAGGGGTTTCACACACATGTATAATTAAT [CACACA_site7950]	6.58

Sequence	gcPBM binding intensity (ln)
CATATAATAAATAGATGTACAGACTATATATATATA [XGTACX_site6575]	8.96
TATATATATATTTTTGCACACATTTTTTAAGGTACA [CACACA_site2145]	10.3
TTTATATGATACACACGTACATATACACATATACAC [XGTACX_site8123]	7.58
TATAATATTTATATAACACACATATAGATTTATTTA [CACACA_site6269]	6.28
AATAGGAAAGATTTTGCATGTGATATAAGTAATTTT [TGCATGCA_site657]	6.27
TACGTAGCCACACTAACACACACAAATATGCACAAT [CACACA_site8942]	10
ATTAAATACATTAACACACACACAAATATGTACATA [CACACA_site7372]	6.94
ATATTATATAATATACGTACATATATTATGCATAAA [XGTACX_site7895]	7
AAAAAAAAAAAAAAAAGTACAAATAAAAAAAAAATA [XGTACX_site4814]	6.33
ATAATTTGTGGACACACACACACACCGACATATATA [CACACA_site8718]	6.91
TTGTTAATGGTACGAACACACATATAAAGATGCATA [CACACA_site2044]	6.54
TTATTCACTTCTTTTTAAAAAAAAAAAAAAAAAAAA [CACACA_negctrl_site223]	6.36
ATTTCGAATATTAAGTGTACAATATAAATATATAAA [XGTACX_site6674]	6.64
TTATATGAATTTTAGATTTATAATACAAGAATATTC [CACACA_negctrl_site70]	6.1
TATTATTCATAATTTATCTTTTAAATTAAATCACAA [GTGCAC_negctrl_site288]	5.91
TATTATTGTCTTTCAAAAAAAAAAAAAAAAAAAAAA [CACACA_negctrl_site1242]	6.11
TATTTATAATAGTGTACACAATTATAAACTGAATAT [CACACA_site6041]	6.83
CAACATATATTAATATGTACATATATATAGATATAT [XGTACX_site4107]	6.33
TTTTTTTCTGTGAGTGCATGTAATAAAATAAATTTA [TGCATGCA_site276]	7.58
TGTTATTTTAAAAAAAAAATTATTAACTTAAAAAAA [CACACA_negctrl_site1641]	5.81
TTCAAAAATATATAATGTACACAAATATAAAAGAAT [XGTACX_site1944]	7.12
TATGTAAAAAATTTAACACACACATATATATATATA [CACACA_site8829]	9.19

Sequence	gcPBM binding intensity (ln)
TTACTTAAGAAACACACACACAAAAAAAAAAAAAAA [CACACA_site946]	6.35
ATCATAATCATAAAAAGTACAAACGATAAAATAAAT [XGTACX_site3832]	7.09
CTTCTTTTGTGATAAAGTACAAATATTTTGAAATAT [XGTACX_site1156]	6.46
ATAAATAAATAAATAAATATATATATGAAATAATGT [TGCATGCA_negctrl_site12]	6.61
TTTTCTATAAGATTTGCACACAACTTATTCTATTAA [CACACA_site3752]	10.6
AAAAAATATAAAACGAGTACATATATAATAAGCAAA [XGTACX_site1360]	6.66
TTTCTTAAAATATAAAGTACTAAAATGAAAATATAT [XGTACX_site2173]	6.47
AAATAAAGAAATATATGTACATATATATATATATAT [XGTACX_site5131]	9.43
CATAATATTTGTGAAAGTACTTATTTTACAATAGGG [XGTACX_site5004]	6.6
ATTATAGACAACTCTTTTTCTAAACTATTTTATTTT [CACACA_negctrl_site1754]	6.35
TTTATTCTCCACACCCGTACACATTTTTTTTGCATA [XGTACX_site5615]	7.6
AAAAAAAAAAAAAACACACACACACGCAGATATATA [CACACA_site6672]	6.65
GCTAAACAATAGTTTGCACACAATTTAAATATATAT [CACACA_site193]	10.3
AATGCACTATTTAAAAGTACACATAAGAAAAGCATA [XGTACX_site1739]	7.88
AATATAATATAATGCACACATAAAAAAAAAAAAATC [CACACA_site1303]	10.6
TTATATACATTAAATGAACACACATAAATAAATTAC [CACACA_site8927]	6.48
AGTATAAATATATTATGTACATATATATTATACTTA [XGTACX_site2623]	6.13
ATATATATATACATATGTACATATATATTTATACAT [XGTACX_site2463]	8.53
TACACAGACGGACACACACACACACTAGAAAAAAAA [CACACA_site4435]	6.81
AAAGAATTTGCATATACACACAAAAAAATAAATACA [CACACA_site4373]	7.31
ATTTCTTTTACATTTACATGCAATGCTCTATAGATA [TGCATGCA_site62]	7.64
ATTTTTTTTATGTATTATGCTTTTATATCCTTCATA [CACACA_negctrl_site1244]	7.02
